# According to the supplement of paper PMC11417369:
# Some of the results follow.
# Test system: PfHDP1 homeodomain (GST-tagged)
# Assay: gcPBM binding intensity (ln(normalized median fluorescence intensity)); higher = stronger DNA binding
# Procedure, shortened: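 Binding intensity is defined as the maximum Masliner-normalised natural-log median intensity across replicate spots for either probe orientation. It was measured on an Agilent 4 × 180k array of primer-extended double-stranded 36-bp intergenic genomic probes and negative controls, to which GST-tagged P. falciparum DNA-binding domains made in E. coli were applied for 1 h in 1× PBS with 1% milk, 0.2 mg/ml BSA, 0.5% salmon testes DNA and 0.03% Triton X-100. Detection was by Alexa488 anti-GST antibody and scanning at 488 nm.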
row,Sequence,gcPBM binding intensity (ln)
1,AGATAGCTATTAAAAAGTACAAAAAAATATATATAT [XGTACX_site6289],7.79
2,TATTTTATATAAAGGTGTACTTATACAAAAATATAT [XGTACX_site7435],6.52
3,TATACAGGAATATTTTTACACACTAATAATTATAAA [CACACA_site8477],6.43
4,ATAAATACAGATATTACACACTTCTTATTCTAAGAA [CACACA_site5640],6.35
5,AAAAAAAAATAAAAAAGTACATTCATTTTATAAGAT [XGTACX_site3507],6.41
6,CATGTCAAAATTATACGTACATATATAAGTTCCATT [XGTACX_site6331],6.56
7,ATCCTCTTTTTAAGTTGTACAGGGTCGAAAAAAAAA [XGTACX_site6852],6.42
8,GATTATTATTATAAGGGTACAAATATTTAATAAAAA [XGTACX_site7144],6.67
9,ACAAATACTAACAACGCATGTAAGCCTACAATAAAT [TGCATGCA_site551],6.6
10,GCTCCTTTTACCATCGCACACGATAAAAAAAAATAA [CACACA_site3255],7.08
11,ATTATATATATATATATATATATATATATATTATAT [CACACA_negctrl_site234],7.41
12,AATGTAATATAAATATGTACATATAAACTATATATA [XGTACX_site6871],6.38
13,GTTTTAAAACAAATATGTACACATAATATAGGAAAG [XGTACX_site1803],7.46
14,ACTTATGATTTATTTTGTACATATATACTATTCCTG [XGTACX_site5275],7.14
15,TTTTGAAATTTTTGTGTTTTTCCTTTTTATTTTATA [CACACA_negctrl_site1740],6.15
16,ATAAAGATTAATAAAATAAAATTCCGCAAACATATA [CACACA_negctrl_site244],6.44
17,ATAAATCCATGTAACTGTACTTTTTTTTTTTTTTTT [XGTACX_site7373],6.17
18,AAGTAATTTGTTGACACACACACACGCATACCTATA [CACACA_site7140],6.74
19,TCCCAATTTCTATCCTGTACAGACATAAATATATAC [XGTACX_site5937],6.99

row,Sequence,gcPBM binding intensity (ln)
1,TTTTTTTTCTAAATTATATGAAAATATATGTTATGT [GTGCAC_negctrl_site85],6.18
2,ACAATTTTAAAATGAACACACATGTTTTTCTTACTT [CACACA_site1014],6.86
3,ATTTTCTATTTTATTTGTACGTAATTTAATTTTTTT [XGTACX_site3609],7.08
4,TACATAAACATTTATACACACATTATAAATACATAT [CACACA_site4386],6.74
5,AATATTTTTTTATAAACACACATATATATAAATATA [CACACA_site3524],6.85
6,TATATATTTTTATGTGTGCACTGTTTCATAAAAGAA,10.1
7,TAATAATTTATATATGCATGTCAAAATAATATTAAA [TGCATGCA_site12],6.28
8,TATATAAATATAATATGTACATATAATATGTATATA [XGTACX_site8120],6.42
9,AAAAAAAAAAGGTGTACATGCAAAATAAATTCTTAA [TGCATGCA_site556],6.35
10,TATGGTAACATATGCTGTACAATATAATATGTTTAA [XGTACX_site1601],6.33
11,AAAAAAAAAAAACACACACACACACCGACAAAATAT [CACACA_site8411],6.9
12,TAAACATAAATATACACACAAACATATATGTATTTT [CACACA_site1214],6.67
13,AAATTATAAATACCTACACACTTATCAAAATAAATT [CACACA_site5280],6.1
14,ACTTATAAAATAACATGTACAAATATTTATTATATA [XGTACX_site133],6.26
15,AACAAAATAAATGTATGTACATATATATATATATAT [XGTACX_site7974],9.32
16,TGGGAGCACAGACACACACACACACCGATATATATA [CACACA_site8001],8.23
17,TATATTAAATATTACACACATACATTTAGTGTCAAA [CACACA_site1990],6.67
18,TCCTTACCTATTAAAGCATGCTCGAATATATATTTT [TGCATGCA_site53],7.48
19,GTGGACGAAATAGTTGTAAATTTATGTGCAAACCTC [XGTACX_negctrl_site564],11.2

row,Sequence,gcPBM binding intensity (ln)
1,ATATATATATCATATTGTACATACTTGTATTTATAT [XGTACX_site2432],8.34
2,GATGATATATATTAGCGTACATGTATATATACCATT [XGTACX_site6404],6.61
3,TAAATGAGAAGGACTGCACACTAAAATGGAAGGAGA [CACACA_site8449],7.29
4,AAAATTTCAAATAACACACACTAATATATATCTGTA [CACACA_site4904],6.23
5,AATGAATATAGTACTGAATGTAATTTAAGGTTTTCC [CACACA_negctrl_site1548],6.14
6,GCATAAATCAAACACACACACATATATATATATATA [CACACA_site2422],9.49
7,TATAATGGATGCTAGCTGCACTAATAAGCAAAAATA,6.68
8,ATTTATATATTGCCCACACACATGTGATTATTTATA [CACACA_site1714],7.31
9,ATATTAAAAAGAAGTGTGCGCAAAACATTAACTTGA,8.25
10,AATGGATGGTCCAAATGTACATATATATATATATAT [XGTACX_site4800],9.32
11,TAAATAAACCTGACTTGTACATGTAAAATAAATATA [XGTACX_site1667],6.23
12,ACATAAATAATAAAAACACACATATGTACAGATATA [CACACA_site5112],6.92
13,AATGGTACATGATACACACACGCACATATATATATT [CACACA_site3425],6.98
14,ATGTAGATATATATATGTACTAATTAGTAGTTTACG [XGTACX_site6275],6.94
15,AGAAAAAATAAAAATAGTACTCAAAAAATTATGAAT [XGTACX_site4908],6.24
16,AGAAAAAAAAAACACACACACACACCCTCAATATAA [CACACA_site39],6.56
17,TTAATTATATATAAAAGTACTTATTTTTCCATATAA [XGTACX_site3033],6.08
18,TAATAGGAAATTATAGGTACACATACAAATAAATAA [XGTACX_site3587],6.39
19,AAAAAAAAAAAAAAAACACACATTTCTTTTTCATAT [CACACA_site11],6.7
